Values quoted from earlier work in patent US20200016134A1, “COMPOSITIONS AND METHODS FOR TREATING SUBSTANCE ABUSE DISORDERS” (EMBERA NEUROTHERAPEUTICS, INC., priority 2016, published 2020).

System: rats
Conditions: subsequent testing, Goeders et al., 1993; cited from earlier work

Cc1nnc2n1-c1ccc(Cl)cc1C(c1ccccc1)=NC2 [alprazolam]
tolerance to the reduction of cocaine self-administration: no tolerance was observed
